Data reported in PubChem BioAssay (NCI).
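Growth conditions: 96-well plates. Treatment: test compound, 48 hours, 5 concentrations. Analysis: linear interpolation between bracketing concentrations; unreached endpoints set to highest concentration. Here, GI50 denotes the concentration required for 50% inhibition of growth.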 Some entries of the source have several records that differ or are many. They are shown here; other results are not. There may be further records. For some assays here: Values given together are repeated measurements in other runs, samples, wells, individuals or studies. A tag in brackets gives the origin of a value. The letters are not those of the source and start again with each entry.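 The concentration for full growth arrest is given as TGI.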 For some assays here: The tests behind the records often covered other concentration ranges, which the source does not state; some values may only mark the edge of a range.

Key:
Experiment in all cases: growth of human tumour cells (NCI), 48 h
[1] = tested on: HOP-92 NSCLC
[2] = tested on: OVCAR-5 ovarian
[3] = tested on: TK-10 renal
[4] = tested on: M14 melanoma
[5] = tested on: SF-268 CNS
[6] = tested on: SK-MEL-5 melanoma
[7] = tested on: K-562 leukemia
[8] = tested on: U251 CNS
[9] = tested on: UO-31 renal
[10] = tested on: HCT-116 colon
[11] = tested on: 786-0 renal
[12] = tested on: UACC-257 melanoma
[13] = tested on: PC-3 prostate
[14] = tested on: MDA-MB-231 breast
[15] = tested on: HL-60(TB) leukemia
[16] = tested on: SNB-75 CNS
[17] = tested on: KM12 colon
[18] = tested on: MALME-3M melanoma
[19] = tested on: SF-295 CNS
[20] = tested on: NCI-H23 lung
[21] = tested on: A498 renal
[22] = tested on: NCI-H226 lung

CCCNC1=C2CC(C)CC(OC)[C@@H](O)[C@H](C)/C=C(\C)C(OC(N)=O)C(OC)/C=C\C=C(/C)C(=O)NC(=CC1=O)C2=O (stereo partly specified)
TGI [1]: 861 nM and 45.3 µM
TGI [2]: 622 nM and 40.7 µM

COC1CCC(N2C(=O)CNc3ncc(-c4ccc(C(C)(C)O)nc4)nc32)CC1 (stereo unspecified)
GI50 [3]: 578 nM [sample A, mean of 2 tests] and 57.7 nM [sample B, mean of 2 tests]

CC[C@@]1(O)C[C@H](OC2CC(N(C)C)C(O)C(C)O2)c2c(O)c3c(c(O)c2[C@H]1OC1CC(N(C)C)C(O)C(C)O1)C(=O)c1cccc(O)c1C3=O (stereo partly specified)
TGI [4]: 171 nM and 16.2 nM
TGI [5]: 931 nM and 38.3 nM
TGI [6]: 245 nM and < 10 nM
TGI [7]: 424 nM and 11.4 nM
TGI [1]: 774 nM and < 10 nM
TGI [8]: 573 nM and 10 µM
TGI [9]: 568 nM and < 10 nM
TGI [10]: 327 nM and < 10 nM
TGI [11]: 743 nM and 10.3 µM
TGI [12]: 554 nM and 45.6 nM
TGI [13]: 187 nM and < 10 nM
TGI [14]: 231 nM and < 10 nM
TGI [3]: 935 nM and 30.5 nM
TGI [15]: 843 nM and 83.5 nM
TGI [16]: 132 nM and < 10 nM
TGI [17]: 306 nM and < 10 nM
TGI [18]: 171 nM and < 10 nM
TGI [19]: 811 nM and 10.8 nM
TGI [20]: 375 nM and < 10 nM
TGI [21]: 116 nM and < 10 nM
TGI [2]: 706 nM and 7.2 µM
TGI [22]: 53.5 nM and 945 nM

O=C(Nc1ccc(Cl)c(Cl)c1)Nc1ccc(Cl)c(Cl)c1
GI50 [21]: 1.41 µM [sample A, 1 test] and 103 nM [sample B, 1 test]
